According to the supplement of paper PMC4604168 (melanoma cell lines):
Some of the results follow. Repeats are few or missing, and single values can be far off.

How the values were obtained:
Experiment in all cases: cell count relative to DMSO control; melanoma cells; higher = more viable cells
Conditions in all cases: library dose: standard library concentration; 72 h
[1] = tested on: SkMel28
[2] = tested on: SkMel2
[3] = tested on: SkMel30
[4] = tested on: SkMel5
[5] = tested on: UACC257
[6] = tested on: UACC62
[7] = tested on: WM115
[8] = tested on: WM1716
[9] = tested on: WM1745
[10] = tested on: WM3526
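Also: cells treated in 1,536-well plates, then fixed and DAPI-stained, with nuclei counted from automated high-throughput microscope images.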

Compound | cell count [1] | cell count [2] | cell count [3] | cell count [4] | cell count [5] | cell count [6] | cell count [7] | cell count [8] | cell count [9] | cell count [10]
Nc1cccc2c1CN(C1CCC(=O)NC1=O)C2=O (stereo not given) [lenalidomide] + C[C@]1(c2nc3c(C(N)=O)cccc3[nH]2)CCCN1 [Veliparib] (first compound 5 µM, partner dose 7 µM) | 102% | 94.5% | 117% | 91.8% | 97% | 63.9% | 88.7% | 105% | 91.9% | 101%
OCc1c[nH]c2ccccc12 [Indole-3-carbinol] + C=CCn1c(=O)c2cnc(Nc3ccc(N4CCN(C)CC4)cc3)nc2n1-c1cccc(C(C)(C)O)n1 [MK1775] (first compound 4 µM, partner dose 0.1 µM) | 46.9% | 76.8% | 73.9% | 69.1% | 89% | 79% | 78% | 83.7% | 56.1% | 75.6%
O=C(CCCCCCC(=O)Nc1ccccc1)NO [vorinostat] + OCCn1cc(-c2cnc3nnn(Cc4ccc5ncccc5c4)c3n2)cn1 [PF04217903] (first compound 0.4 µM, partner dose 5 µM) | 79.7% | 89.6% | 93.3% | 91% | 62.5% | 82.4% | 102% | 102% | 96.9% | 69.7%
Nc1cccc2c1CN(C1CCC(=O)NC1=O)C2=O (stereo not given) [lenalidomide] + Cc1cc([N+](=O)[O-])ccc1NS(=O)(=O)c1cc(Cl)ccc1Cl [FH535] (first compound 5 µM, partner dose 5 µM) | 81.6% | 92.7% | 99.6% | 76.9% | 80.9% | 109% | 84% | 85.5% | 91.4% | 84.3%
Cn1c(Nc2ccc(C(F)(F)F)cc2)nc2cc(Oc3ccnc(-c4ncc(C(F)(F)F)[nH]4)c3)ccc21 + CN(C)S(=O)(=O)c1ccc2c(c1)/C(=C/c1cc3c([nH]1)CCCC3)C(=O)N2 [SU6656] (first compound 0.4 µM, partner dose 2 µM) | 22.1% | 43.6% | 58.5% | 36.9% | 58.4% | 41.1% | 28.3% | 55% | 33.6% | 34.5%
Cn1c(Nc2ccc(C(F)(F)F)cc2)nc2cc(Oc3ccnc(-c4ncc(C(F)(F)F)[nH]4)c3)ccc21 + c1cc(-c2cnn3cc(-c4ccc(OCCN5CCCCC5)cc4)cnc23)ccn1 [Dorsomorphin] (first compound 0.4 µM, partner dose 2 µM) | 33% | 70% | 67.3% | 40.4% | 74.6% | 50.3% | 47.7% | 62.4% | 47.9% | 47.4%
Cn1c(Nc2ccc(C(F)(F)F)cc2)nc2cc(Oc3ccnc(-c4ncc(C(F)(F)F)[nH]4)c3)ccc21 + COC(=O)c1sccc1S(=O)(=O)Nc1ccc(Nc2ccccc2)cc1OC [GSK0660] (first compound 0.4 µM, partner dose 5 µM) | 30.5% | 58.8% | 61.7% | 40.2% | 73.9% | 30.4% | 27.5% | 61.7% | 58.1% | 48.3%
Nc1cccc2c1CN(C1CCC(=O)NC1=O)C2=O (stereo not given) [lenalidomide] + C=CCn1c(=O)c2cnc(Nc3ccc(N4CCN(C)CC4)cc3)nc2n1-c1cccc(C(C)(C)O)n1 [MK1775] (first compound 5 µM, partner dose 0.1 µM) | 53.1% | 82.5% | 82.8% | 58.2% | 88.4% | 69.2% | 67.6% | 79.1% | 42.9% | 94.5%
COCC[n+]1c2c(n(Cc3cnccn3)c1C)C(=O)c1ccccc1C2=O + Cc1ccc(NC(=O)c2cccc(N(C)C)c2)cc1NC(=O)c1ccc(O)cc1 [ZM336372] (first compound 0.002 µM, partner dose 10 µM) | 47.9% | 34.9% | 88.2% | 31.7% | 18.4% | 71.3% | 49.1% | 62.8% | 88.2% | 48.9%
O=C(CCCCCCC(=O)Nc1ccccc1)NO [vorinostat] + Oc1nc(-c2ccc(C(F)(F)F)cc2)nc2c1CSCC2 [XAV939] (first compound 0.4 µM, partner dose 10 µM) | 43.5% | 73.1% | 72.7% | 51.4% | 56.8% | 55.6% | 95.4% | 80.6% | 56.6% | 91.9%
C#Cc1cccc(Nc2ncnc3cc(OCCOC)c(OCCOC)cc23)c1 [erlotinib] + O=S(=O)(c1ccccc1)N(CC(F)(F)F)c1ccc(C(O)(C(F)(F)F)C(F)(F)F)cc1 [T0901317] (first compound 4 µM, partner dose 7 µM) | 63% | 82.3% | 80.8% | 46% | 71.3% | 50.9% | 80.2% | 85% | 48.9% | 67.1%
O=C(CCCCCCC(=O)Nc1ccccc1)NO [vorinostat] + COc1cc2c(Oc3ccc4[nH]c(C)cc4c3F)ncnc2cc1OCCCN1CCCC1 [cediranib] (first compound 0.4 µM, partner dose 2 µM) | 70.9% | 69.5% | 90.9% | 64.5% | 61.5% | 70.5% | 78.5% | 84.8% | 71.6% | 77.8%
Clc1ccc(Nc2nnc(Cc3ccncc3)c3ccccc23)cc1 [vatalanib] + Cc1nc(Nc2ncc(C(=O)Nc3c(C)cccc3Cl)s2)cc(N2CCN(CCO)CC2)n1 [dasatanib] (first compound 10 µM, partner dose 0.02 µM) | 48.8% | 71.7% | 78.7% | 52.8% | 62.2% | 60.1% | 45% | 51.5% | 24.2% | 80.3%
COCC[n+]1c2c(n(Cc3cnccn3)c1C)C(=O)c1ccccc1C2=O + NC(=O)Nc1cc(-c2cccc(F)c2)sc1C(=O)N[C@H]1CCCNC1 [AZD7762] (first compound 0.002 µM, partner dose 0.1 µM) | 30.5% | 25% | 74.1% | 37.8% | 21.3% | 60.5% | 63.8% | 60.9% | 75.6% | 27.8%
OCc1c[nH]c2ccccc12 [Indole-3-carbinol] + COc1cc2c(Oc3ccc4[nH]c(C)cc4c3F)ncnc2cc1OCCCN1CCCC1 [cediranib] (first compound 4 µM, partner dose 2 µM) | 113% | 90.1% | 90.8% | 71.1% | 111% | 98.2% | 101% | 115% | 64.3% | 79%
Cn1c(Nc2ccc(C(F)(F)F)cc2)nc2cc(Oc3ccnc(-c4ncc(C(F)(F)F)[nH]4)c3)ccc21 + COc1cc2ncnc(Nc3ccc(Oc4ccccc4)cc3)c2cc1OC [SrcI1] (first compound 0.4 µM, partner dose 10 µM) | 31.4% | 56.2% | 56.5% | 36.3% | 64.7% | 39.5% | 24.4% | 47.1% | 36.1% | 26.3%
Cn1c(Nc2ccc(C(F)(F)F)cc2)nc2cc(Oc3ccnc(-c4ncc(C(F)(F)F)[nH]4)c3)ccc21 + COc1cc2c(Oc3ccc4[nH]c(C)cc4c3F)ncnc2cc1OCCCN1CCCC1 [cediranib] (first compound 0.4 µM, partner dose 2 µM) | 48.3% | 40.6% | 54.9% | 34.2% | 77.8% | 46.6% | 37.1% | 66.9% | 50.1% | 43.5%
C#Cc1cccc(Nc2ncnc3cc(OCCOC)c(OCCOC)cc23)c1 [erlotinib] + c1cc(-c2cnn3cc(-c4ccc(OCCN5CCCCC5)cc4)cnc23)ccn1 [Dorsomorphin] (first compound 4 µM, partner dose 2 µM) | 40.4% | 73.5% | 61.6% | 58.5% | 73.7% | 47.7% | 51.6% | 72.9% | 38.2% | 55%
Cn1c(Nc2ccc(C(F)(F)F)cc2)nc2cc(Oc3ccnc(-c4ncc(C(F)(F)F)[nH]4)c3)ccc21 + O=C(O)C(=O)Nc1sc2c(c1C(=O)O)CCNC2 [TCS401] (first compound 0.4 µM, partner dose 8.33333 µM) | 27.7% | 53.3% | 58.6% | 40% | 77.7% | 66.3% | 43.5% | 76.9% | 39.7% | 42%
OCc1c[nH]c2ccccc12 [Indole-3-carbinol] + O=C(Nc1cccc(Cl)c1)Nc1ncc(CCNc2ncnc3ccsc23)s1 [SNS314] (first compound 4 µM, partner dose 0.004 µM) | 66.1% | 94.9% | 126% | 122% | 93.5% | 127% | 70.6% | 82.4% | 103% | 107%
Cn1c(Nc2ccc(C(F)(F)F)cc2)nc2cc(Oc3ccnc(-c4ncc(C(F)(F)F)[nH]4)c3)ccc21 + O=C(Nc1cccc(Cl)c1)Nc1ncc(CCNc2ncnc3ccsc23)s1 [SNS314] (first compound 0.4 µM, partner dose 0.004 µM) | 24.5% | 45.4% | 70.5% | 37% | 67.1% | 58.9% | 25.7% | 56.7% | 49.2% | 34.3%
O=C(CCCCCCC(=O)Nc1ccccc1)NO [vorinostat] + COc1ccc(COc2ccc(Cc3cnc(N)nc3N)cc2OC)cc1 [GW2580] (first compound 0.4 µM, partner dose 5 µM) | 65.5% | 91.3% | 106% | 64.8% | 72.4% | 85.1% | 70.5% | 92.7% | 79.3% | 74.5%
OCc1c[nH]c2ccccc12 [Indole-3-carbinol] + COc1ccc(Cl)c(Nc2nc3ccccc3nc2NS(=O)(=O)c2cccc(NC(=O)C(C)(C)N)c2)c1 [XL147] (first compound 4 µM, partner dose 4 µM) | 55.3% | 86.1% | 95.3% | 68.8% | 70.2% | 68.2% | 92.6% | 80% | 108% | 67.1%
